Test results from article PMC4571948, “Identification of a Novel Sequence Motif Recognized by the Ankyrin Repeat Domain of zDHHC17/13 S-Acyltransferases*” (The Journal of Biological Chemistry, 2015).
Positions count from the first letter of the chain named. Names and notes keep the numbering of the source. These are yes or no findings as the source states them, for the method shown. For part of these data: In cells and extracts the contact can be indirect. Some results given as binding are weak or reduced against the parent protein; the word gives no strength. Where a sequence is shown, tags or fusion partners need not be part of it. Blank lines part the entries; values can stand above or below the molecule they belong to.

Sequences of proteins named here, by UniProt entry; tags and fusion partners are left off. A change or cut given only in a name is not applied to a line headed by its entry. A line that says so, or that is headed by a name, gives the form on record, which may keep a tag or linker. Residues count along the entry.
UniProt Q80TN5: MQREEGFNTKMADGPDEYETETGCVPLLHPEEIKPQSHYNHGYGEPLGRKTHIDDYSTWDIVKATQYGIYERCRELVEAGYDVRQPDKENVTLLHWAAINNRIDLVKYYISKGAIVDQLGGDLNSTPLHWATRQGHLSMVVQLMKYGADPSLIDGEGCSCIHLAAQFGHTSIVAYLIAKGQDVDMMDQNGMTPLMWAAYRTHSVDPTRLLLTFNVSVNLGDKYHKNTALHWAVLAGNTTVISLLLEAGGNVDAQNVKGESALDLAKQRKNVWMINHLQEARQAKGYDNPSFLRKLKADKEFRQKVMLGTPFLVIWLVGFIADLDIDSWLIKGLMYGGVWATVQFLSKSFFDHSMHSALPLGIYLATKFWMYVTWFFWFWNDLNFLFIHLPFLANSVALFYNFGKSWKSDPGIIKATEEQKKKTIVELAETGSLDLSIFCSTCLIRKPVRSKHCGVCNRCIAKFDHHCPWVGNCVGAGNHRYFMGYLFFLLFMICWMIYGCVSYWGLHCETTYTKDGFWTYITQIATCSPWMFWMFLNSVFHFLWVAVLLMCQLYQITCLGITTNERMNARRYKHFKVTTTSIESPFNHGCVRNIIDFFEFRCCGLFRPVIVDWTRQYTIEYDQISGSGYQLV
His6-ARD17 (residues 54–288): residues 54-288 of Q80TN5
NubG-2HA-tagged SNAP25b 1–120 (P60881, residues 1-120): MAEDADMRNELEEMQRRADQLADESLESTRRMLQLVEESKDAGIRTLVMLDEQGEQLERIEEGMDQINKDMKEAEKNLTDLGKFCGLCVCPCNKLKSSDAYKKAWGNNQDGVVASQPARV
NubG-2HA-tagged SNAP25b 1–115 (P60881, residues 1-115): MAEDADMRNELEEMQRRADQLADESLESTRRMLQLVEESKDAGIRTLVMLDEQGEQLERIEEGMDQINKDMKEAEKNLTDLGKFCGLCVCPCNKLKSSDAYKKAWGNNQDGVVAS
NubG-2HA-tagged SNAP25b 83–206 (P60881, residues 83-206): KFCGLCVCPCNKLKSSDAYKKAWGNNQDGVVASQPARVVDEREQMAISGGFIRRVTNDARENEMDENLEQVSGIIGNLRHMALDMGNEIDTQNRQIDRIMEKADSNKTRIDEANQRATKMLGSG
NubG-2HA-tagged SNAP25b 93–206 (P60881, residues 93-206): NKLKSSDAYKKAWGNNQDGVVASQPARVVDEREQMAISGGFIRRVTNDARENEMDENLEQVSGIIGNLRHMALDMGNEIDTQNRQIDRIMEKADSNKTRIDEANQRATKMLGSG
NubG-2HA-tagged SNAP25b 116–206 (P60881, residues 116-206): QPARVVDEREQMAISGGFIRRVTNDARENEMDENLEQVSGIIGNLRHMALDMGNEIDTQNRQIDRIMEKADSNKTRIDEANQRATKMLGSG
NubG-2HA-tagged SNAP25b V112A (P60881-1, form named): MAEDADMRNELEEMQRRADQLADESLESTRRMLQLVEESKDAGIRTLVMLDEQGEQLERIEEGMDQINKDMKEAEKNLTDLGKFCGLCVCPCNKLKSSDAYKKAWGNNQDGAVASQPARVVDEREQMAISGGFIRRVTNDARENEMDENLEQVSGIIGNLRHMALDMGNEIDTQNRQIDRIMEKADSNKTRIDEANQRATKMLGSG
NubG-2HA-tagged SNAP25b V113A (P60881-1, form named): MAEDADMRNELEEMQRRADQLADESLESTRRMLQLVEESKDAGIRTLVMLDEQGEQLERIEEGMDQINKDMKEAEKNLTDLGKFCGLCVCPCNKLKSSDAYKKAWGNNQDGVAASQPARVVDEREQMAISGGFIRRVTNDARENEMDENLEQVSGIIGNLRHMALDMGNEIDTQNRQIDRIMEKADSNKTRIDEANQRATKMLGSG
NubG-2HA-tagged SNAP25b P117A (P60881-1, form named): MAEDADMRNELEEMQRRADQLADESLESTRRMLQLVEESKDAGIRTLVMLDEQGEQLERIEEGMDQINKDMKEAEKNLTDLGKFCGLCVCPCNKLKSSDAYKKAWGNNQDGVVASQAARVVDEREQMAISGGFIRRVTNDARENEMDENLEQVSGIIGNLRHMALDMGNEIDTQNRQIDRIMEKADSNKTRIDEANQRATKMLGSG
NubG-2HA-tagged SNAP25b Pro^117 to isoleucine (P60881-1, form named): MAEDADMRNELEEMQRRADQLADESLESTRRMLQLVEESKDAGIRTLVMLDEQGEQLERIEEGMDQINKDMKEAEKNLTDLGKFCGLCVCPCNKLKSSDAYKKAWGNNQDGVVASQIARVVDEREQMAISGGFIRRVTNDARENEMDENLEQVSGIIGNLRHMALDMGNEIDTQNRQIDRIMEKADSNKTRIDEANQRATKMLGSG
NubG-2HA-tagged SNAP25b Pro^117 to valine (P60881-1, form named): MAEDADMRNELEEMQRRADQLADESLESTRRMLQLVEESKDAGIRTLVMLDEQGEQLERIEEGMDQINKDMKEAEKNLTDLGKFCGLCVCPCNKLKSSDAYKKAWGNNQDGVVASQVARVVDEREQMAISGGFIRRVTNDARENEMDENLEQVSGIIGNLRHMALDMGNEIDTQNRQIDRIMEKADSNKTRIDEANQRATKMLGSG
NubG-2HA-tagged SNAP25b Q116A (P60881-1, form named): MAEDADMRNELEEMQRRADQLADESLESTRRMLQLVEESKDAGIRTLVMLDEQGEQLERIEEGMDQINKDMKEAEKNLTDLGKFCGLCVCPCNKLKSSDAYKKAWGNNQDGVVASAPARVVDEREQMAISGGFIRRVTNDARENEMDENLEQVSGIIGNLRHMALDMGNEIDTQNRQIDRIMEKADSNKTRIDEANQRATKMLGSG
UniProt Q96JE9, residues 1-439: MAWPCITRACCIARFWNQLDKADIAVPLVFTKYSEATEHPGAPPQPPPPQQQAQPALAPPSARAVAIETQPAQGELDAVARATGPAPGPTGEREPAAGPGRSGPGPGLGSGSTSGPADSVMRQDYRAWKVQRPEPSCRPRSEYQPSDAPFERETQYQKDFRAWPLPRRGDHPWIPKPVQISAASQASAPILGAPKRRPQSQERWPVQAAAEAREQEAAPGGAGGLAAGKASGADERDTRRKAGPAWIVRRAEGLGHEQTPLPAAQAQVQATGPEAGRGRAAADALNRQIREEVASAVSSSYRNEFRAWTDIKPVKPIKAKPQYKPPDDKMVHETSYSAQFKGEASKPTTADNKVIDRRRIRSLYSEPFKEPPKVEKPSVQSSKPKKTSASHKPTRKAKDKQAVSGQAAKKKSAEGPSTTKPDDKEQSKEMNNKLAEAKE
NubG-2HA-tagged HTT(1–550) (wild type) (P42858, residues 1-550): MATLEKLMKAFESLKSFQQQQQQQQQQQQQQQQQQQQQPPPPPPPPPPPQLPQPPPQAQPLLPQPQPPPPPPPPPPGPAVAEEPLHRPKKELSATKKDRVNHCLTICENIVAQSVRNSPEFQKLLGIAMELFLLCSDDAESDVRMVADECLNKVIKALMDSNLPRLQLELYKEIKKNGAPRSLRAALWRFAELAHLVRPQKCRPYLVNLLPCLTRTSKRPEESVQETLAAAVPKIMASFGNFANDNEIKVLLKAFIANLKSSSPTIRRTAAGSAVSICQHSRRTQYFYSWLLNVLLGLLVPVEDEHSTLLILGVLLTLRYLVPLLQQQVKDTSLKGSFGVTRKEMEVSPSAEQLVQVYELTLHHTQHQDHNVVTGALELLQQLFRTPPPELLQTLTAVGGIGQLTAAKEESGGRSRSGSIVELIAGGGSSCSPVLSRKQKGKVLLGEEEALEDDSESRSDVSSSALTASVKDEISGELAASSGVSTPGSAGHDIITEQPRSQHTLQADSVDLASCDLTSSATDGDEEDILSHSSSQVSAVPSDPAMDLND
NubG-2HA-tagged HTT(1–550) R500A (P42858, form named): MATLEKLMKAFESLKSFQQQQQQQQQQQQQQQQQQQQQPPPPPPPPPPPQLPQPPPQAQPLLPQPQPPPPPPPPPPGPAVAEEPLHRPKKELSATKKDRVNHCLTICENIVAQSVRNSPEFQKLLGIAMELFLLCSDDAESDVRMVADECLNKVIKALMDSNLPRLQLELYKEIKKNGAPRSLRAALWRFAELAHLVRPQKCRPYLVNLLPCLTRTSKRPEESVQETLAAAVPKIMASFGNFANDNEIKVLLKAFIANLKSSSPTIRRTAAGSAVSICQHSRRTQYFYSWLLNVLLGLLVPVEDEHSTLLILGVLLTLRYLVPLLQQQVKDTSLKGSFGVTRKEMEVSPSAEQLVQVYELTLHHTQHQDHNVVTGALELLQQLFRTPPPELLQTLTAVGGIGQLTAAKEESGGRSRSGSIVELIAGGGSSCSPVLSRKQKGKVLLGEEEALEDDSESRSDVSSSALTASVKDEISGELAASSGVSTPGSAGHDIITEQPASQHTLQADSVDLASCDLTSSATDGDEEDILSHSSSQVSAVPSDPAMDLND

Legend:
[1] = target: T1, zDHHC13-Cub-PLV (full-length murine zDHHC13 bait) (murine) (UniProt Q9CWU2); assay: two-hybrid; mating-based split ubiquitin system (SUS) in yeast: zDHHC-Cub-PLV baits, NubG-2HA-tagged preys; growth on synthetic defined medium (PLV-dependent activation of auxotrophy genes)
T1 sequence: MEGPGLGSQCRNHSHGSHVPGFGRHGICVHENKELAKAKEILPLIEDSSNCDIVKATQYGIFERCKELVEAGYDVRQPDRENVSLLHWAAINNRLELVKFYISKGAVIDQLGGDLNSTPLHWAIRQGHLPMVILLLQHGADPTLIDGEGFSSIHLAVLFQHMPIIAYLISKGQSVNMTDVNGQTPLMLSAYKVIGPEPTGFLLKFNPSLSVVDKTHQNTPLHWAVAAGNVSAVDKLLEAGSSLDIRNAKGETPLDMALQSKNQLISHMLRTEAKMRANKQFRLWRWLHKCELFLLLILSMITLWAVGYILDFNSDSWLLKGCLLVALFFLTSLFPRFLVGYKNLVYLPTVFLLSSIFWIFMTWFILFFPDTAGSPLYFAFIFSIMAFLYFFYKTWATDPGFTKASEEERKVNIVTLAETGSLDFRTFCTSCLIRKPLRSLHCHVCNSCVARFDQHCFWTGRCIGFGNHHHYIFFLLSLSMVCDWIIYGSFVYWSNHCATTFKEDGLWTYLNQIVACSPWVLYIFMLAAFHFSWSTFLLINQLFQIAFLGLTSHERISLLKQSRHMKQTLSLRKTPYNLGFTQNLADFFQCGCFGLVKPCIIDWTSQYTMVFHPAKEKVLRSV

[2] = target: zDHHC17-Cub-PLV (full-length murine zDHHC17 bait) (murine) (UniProt Q80TN5); assay: as above
[3] = target: T2, zDHHC3-Cub-PLV (murine zDHHC3 bait) (murine) (UniProt Q8R173); assay: as above
T2 sequence: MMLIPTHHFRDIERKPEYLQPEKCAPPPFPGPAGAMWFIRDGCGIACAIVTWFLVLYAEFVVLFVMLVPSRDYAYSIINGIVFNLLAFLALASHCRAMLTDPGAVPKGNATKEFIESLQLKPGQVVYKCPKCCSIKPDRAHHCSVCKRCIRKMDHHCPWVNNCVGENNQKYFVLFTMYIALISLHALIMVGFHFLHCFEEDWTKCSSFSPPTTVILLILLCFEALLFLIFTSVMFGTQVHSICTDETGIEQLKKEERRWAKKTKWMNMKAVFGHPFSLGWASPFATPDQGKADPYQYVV

[4] = target: His6-ARD17 (residues 54–288) (murine) (UniProt Q80TN5); assay: pull-down; 75 μg His6-ARD17 on Ni2+-NTA-agarose with HEK293T lysates of EGFP-tagged proteins, 2 h at 4 °C; 20 mM Tris-HCl pH 8, 150 mM NaCl, 1% Triton X-100, 20 mM imidazole; washes 300 mM NaCl, 60 mM imidazole; GFP blot; only the target purified

Molecule: NubG-2HA-tagged SNAP25b 1–115 (from UniProt P60881-1 1-115) (domain or fragment)
binding [1]: no binding
binding [2]: no binding

Molecule: NubG-2HA-tagged SNAP25b V112A (from UniProt P60881-1 1-206)
binding [1]: binds
binding [2]: binds
binding [3]: binds weakly

Molecule: NubG-2HA-tagged SNAP25b V113A (from UniProt P60881-1 1-206)
binding [3]: binds weakly

Molecule: EGFP-tagged E-STOP (wild type) (from UniProt Q96JE9-1 1-439) (domain or fragment)
binding [4]: binds

Molecule: HTT(1–550) tested in the His6-ARD17 pulldown (from UniProt P42858 1-550) (domain or fragment)
binding [4]: no binding

Molecule: NubG-2HA-tagged SNAP25b P117A (from UniProt P60881-1 1-206)
binding [3]: binds weakly

Molecule: NubG-2HA-tagged SNAP25b Pro^117 to isoleucine (from UniProt P60881-1 1-206)
binding [1]: binds
binding [2]: binds

Molecule: NubG-2HA-tagged SNAP25b 1–120 (from UniProt P60881-1 1-120) (domain or fragment)
binding [1]: binds
binding [2]: binds

Molecule: NubG-2HA-tagged SNAP25b 93–206 (from UniProt P60881-1 93-206) (domain or fragment)
binding [1]: binds
binding [2]: binds

B3: NubG-2HA-tagged CSPα K137A (protein, UniProt Q29455 1-198)
chain: MADQRQRSLSTSGESLYHVLGLDKNATSDDIKKSYRKLALKYHPDKNPDNPEAADKFKEINNAHAILTDATKRNIYDKYGSLGLYVAEQFGEENVNTYFVLSSWWAKALFIFCGLLTCCYCCCCLCCCFNCCCGKCAPKAPEGEETEFYVSPEDLEAQLQSDEREAADTPIVIQPASATETTQLTADSHPSYHTDGFN
binding [1]: binds
binding [2]: binds

B5: NubG-2HA-tagged CLIP3 (wild type) (protein, UniProt Q96DZ5 1-547)
chain: MTKTDPAPMAPPPRGEEEEEEEEDEPVPEAPSPTQERRQKPVVHPSAPAPLPKDYAFTFFDPNDPACQEILFDPQTTIPELFAIVRQWVPQVQHKIDVIGNEILRRGCHVNDRDGLTDMTLLHYACKAGAHGVGDPAAAVRLSQQLLALGADVTLRSRWTNMNALHYAAYFDVPDLVRVLLKGARPRVVNSTCSDFNHGSALHIAASSLCLGAAKCLLEHGANPALRNRKGQVPAEVVPDPMDMSLDKAEAALVAKELRTLLEEAVPLSCALPKVTLPNYDNVPGNLMLSALGLRLGDRVLLDGQKTGTLRFCGTTEFASGQWVGVELDEPEGKNDGSVGGVRYFICPPKQGLFASVSKISKAVDAPPSSVTSTPRTPRMDFSRVTGKGRREHKGKKKTPSSPSLGSLQQRDGAKAEVGDQVLVAGQKQGIVRFYGKTDFAPGYWYGIELDQPTGKHDGSVFGVRYFTCPPRHGVFAPASRIQRIGGSTDSPGDSVGAKKVHQVTMTQPKRTFTTVRTPKDIASENSISRLLFCCWFPWMLRAEMQS
binding [1]: binds
binding [2]: binds

B6: EGFP-tagged SNAP23 (wild type) (protein, UniProt O09044 1-210)
chain: MDNLSPEEVQLRAHQVTDESLESTRRILGLAIESQDAGIKTITMLDEQGEQLNRIEEGMDQINKDMREAEKTLTELNKCCGLCICPCNRTKNFESGKNYKATWGDGGDNSPSNVVSKQPSRITNGQPQQTTGAASGGYIKRITNDAREDEMEENLTQVGSILGNLKNMALDMGNEIDAQNQQIQKITEKADTNKNRIDIANTRAKKLIDS
binding [4]: binds

B7: NubG-2HA-tagged SNAP23 (wild type) (protein, UniProt O09044 1-210)
chain: B6 chain
binding [1]: binds
binding [2]: binds

Second part, the molecule after the results:

binding [1]: binds
binding [2]: binds
binding [3]: binds weakly
Molecule: NubG-2HA-tagged SNAP25b (wild type) (from UniProt P60881-1 1-206)

binding [1]: binds
binding [2]: binds
Molecule: NubG-2HA-tagged HTT(1–550) R500A (from UniProt P42858 1-550) (domain or fragment)

binding [4]: binds
Molecule: EGFP-tagged SNAP25b (wild type) (from UniProt P60881-1 1-206)

binding [1]: binds
binding [2]: binds
Molecule: NubG-2HA-tagged SNAP25b Pro^117 to valine (from UniProt P60881-1 1-206)

binding [1]: binds
binding [2]: binds
Molecule: NubG-2HA-tagged SNAP25b 83–206 (from UniProt P60881-1 83-206) (domain or fragment)

binding [1]: binds
binding [2]: binds
Molecule: NubG-2HA-tagged HTT(1–550) (wild type) (from UniProt P42858 1-550) (domain or fragment)

binding [1]: no binding
binding [2]: no binding
Molecule: NubG-2HA-tagged SNAP25b 116–206 (from UniProt P60881-1 116-206) (domain or fragment)

binding [3]: binds weakly
Molecule: NubG-2HA-tagged SNAP25b Q116A (from UniProt P60881-1 1-206)

binding [1]: binds
binding [2]: binds
binding [3]: binds weakly
B1: NubG-2HA-tagged CSPα (wild type) (protein, UniProt Q29455 1-198)
chain: B3 chain with A137K

binding [4]: binds
B2: EGFP-tagged CSPα (wild type) (protein, UniProt Q29455 1-198)
chain: B3 chain with A137K

binding [4]: binds
B4: EGFP-tagged CLIP3 (wild type) (protein, UniProt Q96DZ5 1-547)
chain: B5 chain
